Measured values from the supplement of paper PMC4967469.

Legend:
Test in all cases: Viability of human cancer cell lines after 72 h of drug (GDSC screen)
[1] = compound: Cc1cccc(-c2[nH]c(C(C)(C)C)nc2-c2ccc3c(c2)OCO3)n1 [SB-505124]; settings: top dose 10 µM; top dose inferred
Protocol: (§1)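 Human cancer cell lines in 384-well plates, medium with 10% serum, drug for 72 h over a 256-fold dose range (nine 2-fold or five 4-fold steps up to the top dose). Adherent lines were fixed and stained with the nucleic acid dye Syto60, suspension lines read with resazurin; signal relative to control wells, capped at 0 and 100%. One two-parameter sigmoid per drug and line, fitted in a mixed model over all curves with the slope shared within a line.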

[2] = compound: Oc1cccc(-c2nc(N3CCOCC3)c3oc4ncccc4c3n2)c1 [PI-103]; settings: top dose 10.24 µM
Protocol: as §1

[3] = compound: COc1cc2c(NC3CCN(C(C)C)CC3)nc(C3CCCCC3)nc2cc1OCCCN1CCCC1 [UNC0638]
Protocol: as §1

[4] = compound: O=C(NCCCNc1nc(Nc2cccc(NC(=O)N3CCCC3)c2)ncc1I)c1cccs1 [BX-795]; settings: top dose 5 µM; top dose inferred
Protocol: as §1

[5] = compound: CC1=C(/C=C/C(C)=C/C=C/C(C)=C/C(=O)O)C(C)(C)CCC1 [Tretinoin]; settings: top dose 10 µM; top dose inferred
Protocol: as §1

[6] = compound: CCn1c(-c2nonc2N)nc2c(C#CC(C)(C)O)ncc(OC[C@H]3CCCNC3)c21 [GSK690693]; settings: top dose 10.24 µM; top dose inferred
Protocol: as §1

[7] = top dose 20 µM, screen: GDSC drug entry 1236, top dose inferred
[8] = top dose 40 µM, screen: GDSC drug entry 245

Cell Line	AUC [1]	IC50 [1] [µM]	AUC [2]	IC50 [2] [µM]	AUC [3, 7]	IC50 [3, 7] [µM]	AUC [3, 8]	IC50 [3, 8] [µM]	AUC [4]	IC50 [4] [µM]	AUC [5]	IC50 [5] [µM]	AUC [6]	IC50 [6] [µM]
TOV-21G (ovary, adherent)	0.976	> 10	0.637	1.59	0.979	> 20	0.969	> 40	0.618	0.681	0.964	> 10	0.98	> 10.2
TOV-112D (ovary, adherent)	0.843	7.14	0.304	0.179	0.852	15.6	0.753	13.5	0.798	2.39	0.984	> 10	0.984	> 10.2
TT2609-C02 (thyroid, adherent)	0.97	> 10	0.616	1.37	0.985	> 20	0.715	10.6	0.719	1.37	0.912	> 10	0.982	> 10.2
TYK-nu (ovary, adherent)	0.914	> 10	0.959	> 10.2	0.825	13.2	0.808	22.4	0.828	3.38	0.984	> 10	0.984	> 10.2
U-118-MG (glioma, adherent)	0.956	> 10	0.427	0.391	0.984	> 20	0.867	> 40	0.877	> 5	0.937	> 10	0.916	> 10.2
UACC-62 (melanoma, adherent)	0.978	> 10	0.869	9.27	0.906	> 20	0.975	> 40	0.922	> 5	0.988	> 10	0.984	> 10.2
UACC-893 (breast, adherent)	0.98	> 10	0.616	1.49	0.98	> 20	0.807	29.7	0.978	> 5	0.927	> 10	0.579	1.13
UWB1.289 (ovary, adherent)	0.961	> 10	0.739	4.46	0.977	> 20	0.855	> 40	0.927	> 5	0.916	> 10	0.941	> 10.2
VAL (B-cell lymphoma, suspension)	0.969	> 10	0.302	0.177	0.77	7.66	0.611	5.06	0.868	4.58	0.987	> 10	0.886	> 10.2
VMRC-RCZ (kidney, adherent)	0.98	> 10	0.868	> 10.2	0.981	> 20	0.901	> 40	0.832	3.95	0.97	> 10	0.97	> 10.2
WM35 (melanoma, adherent)	0.985	> 10	0.192	0.0767	0.754	6.79	0.631	5.75	0.837	3.4	0.973	> 10	0.966	> 10.2
WM793B (melanoma, adherent)	0.977	> 10	0.441	0.435	0.822	13.4	0.664	7.52	0.866	> 5	0.975	> 10	0.948	> 10.2
WM1552C (melanoma, adherent)	0.986	> 10	0.333	0.219	0.809	10.6	0.671	7.49	0.904	> 5	0.963	> 10	0.976	> 10.2
WM-115 (melanoma, adherent)	0.971	> 10	0.345	0.216	0.8	12.2	0.675	8.66	0.824	–	0.878	> 10	0.861	> 10.2
YAPC (pancreas, adherent)	0.98	> 10	0.973	> 10.2	0.873	> 20	0.792	23.1	0.907	> 5	0.974	> 10	0.963	> 10.2
YH-13 (glioma, adherent)	0.945	> 10	0.559	0.934	0.861	18.6	0.875	> 40	0.618	0.673	0.864	9.58	0.912	> 10.2
YKG-1 (glioma, adherent)	0.981	> 10	0.43	0.41	0.909	> 20	0.865	36.1	0.778	2.06	0.97	> 10	0.898	> 10.2
huH-1 (liver, adherent)	0.982	> 10	0.984	> 10.2	0.972	> 20	0.984	> 40	0.816	3.63	0.968	> 10	0.984	> 10.2

The IC50 comes from the fitted curve, where viability falls to half of the control; where the fit passes the top or lowest dose, that dose stands as a limit. AUC is the area under the same curve over the 256-fold range up to the top dose, as a fraction: 1 means no effect, lower means more sensitive. For some assays here: Any top dose called inferred was derived from the fitted curves, not read from the paper. For some assays here: An entry number marks a drug with two screens in the source, which often give different values.
